# From PubChem BioAssay (Tox21)
# Records with an inconclusive call do not appear. Calls follow the shape of the dose curve; as a rule, active = well fitted cell-killing curve with a large enough effect in the repeat runs; inconclusive = weak or mixed curves, or effect the other way; inactive = no such curve, though single readings can be large or run the other way. A structure can be active in one record and inactive in another. Not every entry of the source has a single result; some have several. This is not the full list of results. The source may hold further records. Results that share an entry repeat one measurement (runs, samples, wells, individuals or studies). A tag in brackets gives the origin of a value. Letters count within one entry.
# Assay: qHTS assay to identify small molecule antagonists of the progesterone receptor (PR) signaling pathway - cell viability counter screen (AID 1346798); also: nearly all actives have a fitted effect of over 50% in size
# Procedure, shortened: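 Counter screen for cytotoxicity: viability of PR-UAS-bla HEK293T cells was measured with CellTiter-Glo luminescence following 16 hr compound exposure in the presence of R5020.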
# Potency is read from the fitted curve at half-maximal effect.
compound,measurement,value
C[C@]12CCC(=O)C=C1CC[C@@H]1[C@@H]2CC[C@]2(C)C(=O)CC[C@@H]12,Potency,inactive [sample A] and active: 30.6 µM [sample B]
